In the RNAGym collection of RNA variant scans (doi:10.1093/nar/gkz1192) one finds self-cleavage data, which are given here for 68 variants.

The source gives no read counts; variants with many changes may rest on few reads.

Sequences and labels used below:
B1: CPEB3 Ribozyme (parent)
chain: UAACAGGGGGCCACAGCAGAAGCGUUCACGUCGCAGCCCCUGUCAGAUUCUGGUGAAUCUGCGAAUUCUGCUGUAUAUCUC

The series covers variants of B1. Briefly: self-cleavage, relative activity (ratio to wild type); higher = more cleavage; in vitro, sequencing. The essentials: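 Libraries of CPEB3 self-cleaving ribozyme mutants came from rounds of error-prone PCR and carried barcodes, which DNA sequencing matched to variants. In vitro transcription used T7 RNA polymerase at 37°C for 5 hours, with a further 15 min in DNase I before EDTA stopped the reaction; the ribozymes cleaved during both steps. The RNA was reverse transcribed with template switching and sequenced on Illumina. Relative activity is the cleaved/total read fraction of a variant divided by that of the unmutated ribozyme, averaged over three batches with at least 5 reads.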
For UAGCAGGGGGCCACAGCAGAAGCGAUCACGUCGCAGCCCCUGUCAGACUCUGGUGAGUCUGCGAAUUCUGCUAUAUAUCUC, the self-cleavage was found to be 0.19.

For the variant UAGCAGGGGGCCACAGCAGAAGCGCUCGCGUCGCAGCCCCUGUCAGAUCCUGGUGAAUCUGCGAAUUCUGUUGUAUAUCUC, the self-cleavage came to 0.35.

For UAGCAGGGGGCCACAGCAGAAGCGUACACGUCGCAGCCCCUGACAGAUUCUGGUGAAUCUGCGAAUUCUGCUGUAUACCUC, the self-cleavage stood at 0.17.

On to UAGCAGGGGGCCACAGCAGAAGCGUACACGUCGCAGCCCCUGUCAGGUUCUGGUGAAUCUGCGAAUUCUGCUGUAUAUCUC, for which the self-cleavage was 0.79.

As for UAGCAGGGGGCCACAGCAGAAGCGCUCACGUCGCAGCCCCUGCCAGAUUCUGGUGAAUCUGCGAAUUCUGCUGUAUAUCCC, the self-cleavage is 0.56.

As to UAGCAGGGGGCCACAGCAGAAGCGCUCACGUCGCAGCCCCUGUCAGAUUCUGGUGAAUCUGCGAAUGAUGCCGUAUAUCUC, the self-cleavage came out at 0.11.

As to UAGCAGGGGGCCACAGCAGAAGCGCUCACGUCGCAGCCUUUGUCAGAUUCUGGUGAAUCAGCGAAUUCUGCUGUAUAUCUC, the self-cleavage was determined as 0.19.

With UAGCAGGGGGCCACAGCAGAAGCGCUCACGUCGCAGCCCCUGUCUGAUUCUGGUGAAUCUGCGAAUUCCCCUGUAUAUCUC, the self-cleavage was determined as 0.04.

With UAGCAGGGGGCCACAGCAGAAGCGCUCACGUCGCAGCCCCUGUCAGAUUCUGGUGAAUCUGCGAAUUCUGCUGUUUAUCUC, the self-cleavage turned out to be 0.54.

UAGCAGGGGGCCACAGCAGAAGCGCUCACGUCGCAGCCCCUGUCAGAUUCUGUUGAAUCUGCGAAUUCUGCCGUAUAUCUC: the self-cleavage worked out at 0.88.

On to UAGCAGGGGGCCACAGCAGAAGCGCUCACGUCGCGGCCCCUGUCAGAUUCUGGUGGAUCUGCGAAUUCUGCUGUAUAUCUC, for which the self-cleavage came to 0.66.

UAGCAGGGGGCCACAGCAGAAGCGUCCACGUCGCAGCCCCUGUCGGAUUCUGGGGGGUCUGCGAAUUCUGCUGUAUAUCUC: the self-cleavage was determined as 0.32.

In the case of UAGCAGGGGGCCACAGCAGAAGCGUCCACGUCGCAGCCCCUGUCAGAUUCUGGUGUAUCUGCGAAUUCUGCUGUAUAUCUC, the self-cleavage amounted to 0.23.

Regarding UAGCAGGGGGCCACAGCAGAAGCGUCCACGUCGCAGCCCCUGUCAGAUUCUGGUGAAUCUGGGAAUUCUGCUGUAUAUCUC, the self-cleavage came to 0.25.

As to UAGCAGGGGGCCACAGCAGAAGCGUACACUUCGCAGCCCCUGACAGUCUCUGGUGAAUCUGCGAAUUCUGCUGUAUAUCCC, the self-cleavage was determined as 0.09.

With UAGCAGGGGGCCACAGCAGAAGCGCUCACGUCGCAGCCCCUGUCGGAUUCUGGUGAAUCUGCGAAUUCUGCUGAAUAUCUC, the self-cleavage is 0.81.

Turning to UAGCAGGGGGCCACAGCAGAAGCGUCCACGUCGCAGCCCCUGUCAGAUUCUCGUGAAUCUGCGAAUUCUGCUGUAUAUCUC, the self-cleavage is 0.75.

As for UAGCAGGGGGCCACAGCAGAAGCGCUCACGUCGCAGCCCCAGCCUGAUUCUGGUGAAUCUGCGAAUACUGCUGUAUAUCUC, the self-cleavage is 0.14.

Turning to UAGCAGGGGGCCACAGCAGAAGCGCUCACGUCGCAGCCCCUGUCAGAUUCUGGUGAAUCUGCGAAUCCUGCCGUAUAUCUC, the self-cleavage was 0.06.

For UAGCAGGGGGCCACAGCAGAAGCGUCCACGUCGCAGCCCCUGUCAGAUUCUGGAGCAUCUGCGAAUUCUGCUGUAUAUCAC, the self-cleavage was 0.32.

Consider UAGCAGGGGGCCACAGCAGAAGCGAUCACGACGCAGCCCCUGCCAGACUCUGGUGAAUCUGUGAAUUCUGCUGUAAAUCUC, for which the self-cleavage stood at 0.08.

As to UAGCAGGGGGCCACAGCAGAAGCGCCCACGUCGCAGCCCCAGUCAGAUUCUGGUGAAUCUGCGAAUUCUGCUGUAUAUCUC, the self-cleavage worked out at 0.63.

On to UAGCAGGGGGCCACAGCAGAAGCGCUCACGUCGCAGCCCCAGUCAGAUUCUGGUGAAUCUGCGAAUUCUGCUGUAUAUCUC, for which the self-cleavage worked out at 0.49.

As to UAGCAGGGGGCCACAGCAGAAGCGUCCACGUCGCAGCCCCCGUCAGAUUCUGGUGAUUCUGCGAAUUCUGCUGUAUAUCUC, the self-cleavage worked out at 0.5.

For the variant UAGCAGGGGGCCACAGCAGAAGCGCUCGCGUCGCGGCCCCUGUCAGAUUCUGGUGAAUCUGCGAAUUCCGCUGUAUAUCUC, the self-cleavage turned out to be 0.4.

Take UAGCAGGGGGCCACAGCAGAAGCGUUCACGUCGCAGCCCCUGUCAGAUUCUGAUGAAUCUGCGAAAUCUGCUGUAUAUCUC: the self-cleavage is 0.48.

UAGCAGGGGGCCACAGCAGAAGCGAUCACGUCGCAGCCCCUGUCAGAUUCUGGUGCAUCUGCGAAUUCUGCUGUAUACCUC: the self-cleavage came to 0.2.

UAGCAGGGGGCCACAGCAGAAGCGUACACGUCGCAGCCCCUGUCAGAUUCUGGUGAAUCUGCGAAUUCCGCUGUAUAUCUC: the self-cleavage amounted to 0.51.

With UAGCAGGGGGCCACAGCAGAAGCGUUCACGUCGCAGCCCCUGUCAGAUUCUCGAGAAUCUGCGUAUUCCGCUGUAUAUCCC, the self-cleavage stood at 0.85.

For UAGCAGGGGGCCACAGCAGAAGCGCUCACGUCGCAGCCCCCGUCAGAUUCUGGUGAAUCUGCGAAUUCUGCUGUAUAUCCC, the self-cleavage was 0.58.

Turning to UAGCAGGGGGCCACAGCAGAAGCGCUCACGUCGCAGCACCGGUCAGAUUCUGGUGAGUCUGCGAAUUCUGCUGUAUAUCUC, the self-cleavage is 0.08.

UAGCAGGGGGCCACAGCAGAAGCGUCCACGUGGCAGCCCCUGUCAGGUUCUGGUGAACCUGCGAAUUCUGCUGUAUAUCUC: the self-cleavage is 0.14.

On to UAGCAGGGGGCCACAGCAGAAGCGCUCACGCCGCAGCCCCUGUCAGAUUCAGGUGAAUCUGGGAAUUCUGCUGUAAAUCUC, for which the self-cleavage came to 0.13.

In the case of UAGCAGGGGGCCACAGCAGAAGCGUCCAUGUCGCAGCCCCUGUCAGAUUCUGGUGAAUCUGCGAAUUCUGCUGUAUAUCUC, the self-cleavage is 0.48.

Take UAGCAGGGGGCCACAGCAGAAGCGUACACAACGCAGCCCCUGUCAGACUCUGGUGGAUCUGCGGAUUCUGCUGUAUAUCUC: the self-cleavage is 0.08.

For UAGCAGGGGGCCACAGCAGAAGCGUCCACGUCGCAGCCCCUGUCAGAUUCUGGUGAAACUGCGAAUUCUGCUGUAUAUCUC, the self-cleavage is 0.54.

Take UAGCAGGGGGCCACAGCAGAAGCGCACACGUCGCAGCCCCUGUCAGAUUCUGGUGGAUCUGCGAAUUCUGCCGUAUAUCUC: the self-cleavage was 0.57.

As to UAGCAGGGGGCCACAGCAGAAGCGCUAACGUCGCAGCCCCUGUCAGAUUCUGGGGAAUCUGCAAAUUCUGCUGUAUAUCUC, the self-cleavage was determined as 0.08.

Consider UAGCAGGGGGCCACAGCAGAAGCGCUCACGUCGCAGCCCCUGUCAGAUUCUGGUGAAUCUGCGAAUUCUGCUGAAUAUCUC, for which the self-cleavage was 0.64.

Take UAGCAGGGGGCCACAGCAGAAGCGAUCACGUCGCAGCCCCUGUCAGAUUCUGGUGAAUCUGCGAGUCCUGCUGAAUAUCUC: the self-cleavage is 0.17.

With UAGCAGGGGGCCACAGCAGAAGCGCUCACGUCGCAGCCCCUGUCAGACUCUGGUGGAUCUGCGAAUUCUGCUGUAUGUCUC, the self-cleavage was determined as 0.08.

As for UAGCAGGGGGCCACAGCAGAAGCGUACACAUCGCAGCCCCUGUCAGAUUCUGGUGAAUCUGCGGAUUCUGCUGUAUAUCUC, the self-cleavage was 0.3.

For the variant UAGCAGGGGGCCACAGCAGAAGCGAUCACGUCGCAGCCCCCGUCAGAUUCUGGUGAAUCUGCGAAUUCUGCUGUAUAUCUC, the self-cleavage amounted to 0.63.

As to UAGCAGGGGGCCACAGCAGAAGCGCUCACGUCGCAGCCCCUGUCAGAUUCCGGUGAAUCUGCGUAUUCUGCUGCAUAUCUC, the self-cleavage was determined as 0.09.

As for UAGCAGGGGGCCACAGCAGAAGCGCUCACGUCGCAGCCCCUGUCAGAUUCUGGUGAAUCGGCGAAUUCUGCUGUAUAUCUC, the self-cleavage was determined as 0.3.

Regarding UAGCAGGGGGCCACAGCAGAAGCGGUCACGUCGCAGCCCCUGUCAGAUUCUGGUGAAUCUGCGAAUUCUGCAGAAUAUCUC, the self-cleavage stood at 0.21.

As to UAGCAGGGGGCCACAGCAGAAGCGUACACGUCACAGCCCCUGUCAGGUUCUGGUGUAUCUGCGAAUUCUGCUGUAUAUCUC, the self-cleavage amounted to 0.03.

Consider UAGCAGGGGGCCACAGCAGAAGCGUCCACGUCGCAGCCCCUGUCAGAUUCUGGUGAACCUGCGAAUUCUGCUGUAUACCUC, for which the self-cleavage is 0.05.

As to UAGCAGGGGGCCACAGCAGAAGCGCUCACGCCGCAGCCCCUGUCAGAUUCUGGUGAAUCUGCGAAUUCUGGUGUAUAUCUC, the self-cleavage was determined as 0.05.

As to UAGCAGGGGGCCACAGCAGAAGCGUCCACGUCACAGCCCCUGUCAGAUUCUGGUGAAUCUGCGAAUUCUGCUGUAUAUCUC, the self-cleavage was determined as 0.42.

Turning to UAGCAGGGGGCCACAGCAGAAGCGUCCACGUCGCAGCCCCUGUCAGAUCCUGGUGAAUCUGCGAAUUCUGCUGUAUAUCUC, the self-cleavage is 0.34.

Consider UAGCAGGGGGCCACAGCAGAAGCGCUCACGUAGCAGCCCCUGUCAGAUUCUGGUGAAUCUGCGUAUUCUGCCGUAUAUCUC, for which the self-cleavage amounted to 0.14.

On to UAGCAGGGGGCCACAGCAGAAGCGUUCACGUCGCAGCCCCUGUCAGAUUCUGGUGAAUCUGCAAAUUCUGCUGUAUACCUC, for which the self-cleavage is 0.55.

With UAGCAGGGGGCCACAGCAGAAGCGAACACGUCGUAGCCCCUGUUAGAUUCUGGUGAAUCUGCGAAUUCUGCUGUAUAUCUC, the self-cleavage was 0.29.

As to UAGCAGGGGGCCACAGCAGAAGCGUACACGUCGCAGCCCCUGUCAGAUUCUGGUGAAUCUGCGGAUUCUGCUGUAUAUCUC, the self-cleavage is 0.93.

On to UAGCAGGGGGCCACAGCAGAAGCGCUCACGUCGCAGCUCCUGUCAGAUUCUGGUGGAUCUGCGAAUUCUGCCGUAUAUCUC, for which the self-cleavage is 0.06.

Consider UAGCAGGGGGCCACAGCAGAAGCGUCCACGUCGCGGCCCCUGUCAGGUUCUGGUGAAUCUGCGAAUUCCGCUGUAUAUCUC, for which the self-cleavage was determined as 0.66.

With UAGCAGGGGGCCACAGCAGAAGCGUACACGUCGCAGCCCCUGUCAGAUUUUGGUGAAUCUGCGAAUUCUGCUGUACAUCUC, the self-cleavage was 0.65.

UAGCAGGGGGCCACAGCAGAAGCGUCCACGUCGCGGCCCCUGUCAGAUUCUGGUGAAUCUGCGAAUUCUGCUGUAUAUCUC: the self-cleavage came out at 1.13.

For the variant UAGCAGGGGGCCACAGCAGAAGCGAUCACGUCGCAGCCCCUGUCAGAUUCUGGUGAAUCUGCGAAUUCUGCCGUAUAUCUC, the self-cleavage worked out at 0.17.

As for UAGCAGGGGGCCACAGCAGAAGCGCUCACGUCGCAACCCCAGUCAGAUUCUGGUGAAUCUGCGAGUUCUGCUGUAUACCCC, the self-cleavage is 0.06.

Take UAGCAGGGGGCCACAGCAGAAGCGUUCACGUCGCAGCCCCUGUCAGAUUCUGUUGAAACUGCGGAUUCUGCUGUAAAUCUC: the self-cleavage was 0.32.

Regarding UAGCAGGGGGCCACAGCAGAAGCGUCCACGUCGCAGCCCCUGUCUGAUUCUGGUGAAUCUGCGAAUUCUGCUGUAUAUCUC, the self-cleavage worked out at 0.54.

UAGCAGGGGGCCACAGCAGAAGCGCUCACGUCGCAGCCCCUGUCAGAUUCCGGUGAAUCUGCGAAUUCUGCUGUAUAUGUC: the self-cleavage came to 0.12.

Regarding UAGCAGGGGGCCACAGCAGAAGCGAUCACGUCGCAGCCCCUGUCAGAUUCUGGUGAAUCUGCAAAUUCUGCUGUAUAUCUC, the self-cleavage is 0.35.

As for UAGCAGGGGGCCACAGCAGAAGCGCACACGUCGCAGCCCCUGUCAGAUUCUGGUGAAUCUGCGAAUUCUGCUGUUUAUCUC, the self-cleavage was found to be 0.67.

For the variant UAGCAGGGGGCCACAGCAGAAGCGAUCACGUCGCAGCCCCUGUCAGAUUCUGCUGAAUCUGCGAAUUCUGCUGUAUAUCUC, the self-cleavage came to 0.59.

Take UAGCAGGGGGCCACAGCAGAAGCGUUCACGUCGCAGCCCCUGUCAGAUUCUGGUCAAUCUGCGGAUUCUGCUGUAUAUCUC: the self-cleavage was 0.58.
